Data on 41 compounds can be found in ChEMBL document CHEMBL4888484, “Replenishing the malaria drug discovery pipeline: Screening and hit evaluation of the MMV Hit Generation Library 1 (HGL1) against asexual blood stage Plasmodium falciparum ,using a nano luciferase reporter read-out” (2022).

About 540 (0.36%) of roughly 150,000 compounds showed an effect of 50% or more. The list shows a part of the results.

The subject of the experiment is Plasmodium falciparum. Description: Primary screen in NF54 nanoGlo assay, in single point, at 2uM, 72h; a lower Z score goes with more inhibition. It counts as functional, Erythrocyte. The note with it: timepoint 72 hour.
One may read the % Inhibition as the drop in the measured response relative to a control, in per cent. `CC(O)CC(C)Nc1ccc(C#N)cc1` (configuration not stated): the “% Inhibition” value was 8% and the Z score was -1.02.
As to `CCOC(=O)c1c(-c2ccc(Cl)cc2)nn2c1NCN(CCc1ccccc1)C2`, the “% Inhibition” value is listed as -11% and the Z score is 1.74.
Regarding `O=C(CCc1cc2n(n1)CCN(Cc1nc3ccccc3[nH]1)C2)NC1CCCC1`, the “% Inhibition” value stood at 2% and the Z score is on record as -0.31.
On to `COc1cccc(CN2CCC3(CC2)c2ccccc2[C@@H](NC(=O)c2ccccc2OC)[C@@H]3OC)c1`, for which the “% Inhibition” value came out at 8% and the Z score is on record as -1.13.
For `OC[C@H]1CCCCN1c1cc(N2CCNc3ccccc3C2)ncn1` the same measures were -16% and 1.98.
For `CC[C@H]1CCCCCN1C(=O)C1CC=CC1` the same measures were -1% and 0.21.
Regarding `CCn1cnc2cc(-c3noc(-c4ccc(Br)o4)n3)ccc21`, the “% Inhibition” value is on record as 30% and the Z score is listed as -3.94.
In the case of `FC1(F)CCCN(Cc2cc3cccnc3o2)C1`, the “% Inhibition” value is given as -22% and the Z score is given as 4.06.
As to `Cc1ccc(C(=O)O)cc1-n1c(=O)c2cc3[o+]c4ccccc4c4ccccc4[o+]c3cc2c1=O`, the “% Inhibition” value was -11% and the Z score turned out to be 1.4.
On to `Cc1nc(CNC2CCCCC2OCc2ccccc2)no1` (configuration not stated), for which the “% Inhibition” value is recorded as -7% and the Z score was found to be 0.98.
As to `CCNc1ncc(C(=O)N(C)Cc2nccn2CC(F)(F)F)s1`, the “% Inhibition” value is -13% and the Z score is 1.92.
As for `Cc1cnn(C[C@H]2CCCN2c2nnc(C)c(C)c2C#N)c1`, the “% Inhibition” value is listed as -3% and the Z score came to 0.57.
For `CN(C)c1nccc(N(C)CCc2ccc(F)cc2)n1`, the “% Inhibition” value is listed as -12% and the Z score was found to be 1.23.
With `O=C1[C@H]2C(Cc3c[nH]c4ccccc34)N[C@@]3(C(=O)Nc4ccccc43)[C@H]2C(=O)N1CC1CCCO1` (some centres not stated), the “% Inhibition” value was -7% and the Z score was 0.9.
In the case of `O=C(c1ccnc(-c2ccc(OCc3ccccc3)c(Cl)c2)c1)N1CCCC1`, the “% Inhibition” value is -11% and the Z score is recorded as 1.65.
Take `Cn1nc(O)c2c1CN(C(=O)Nc1ccc3c(c1)OCCCO3)CC2`: the “% Inhibition” value is recorded as -8% and the Z score was found to be 1.2.
Consider `CN(c1nc(CN2CCCCC[C@@H]2CCO)cs1)C1CC1`, for which the “% Inhibition” value was -9% and the Z score turned out to be 1.25.
In the same order, the values of `COc1cc2c(cc1-c1cn(CCN3CCCOC3=O)nn1)OCCCO2` are -2% and 0.25.
In the same order, the values of `COc1ccc(-c2cc3c(N4CCN(Cc5ccc6c(c5)OCO6)CC4)nccn3n2)cc1OC` are 37% and -4.74.
Take `CN(C)C(=O)NCc1cc2n(n1)CCCN(Cc1ccc3c(c1)OCO3)C2`: the “% Inhibition” value is 9% and the Z score is -1.3.
In the same order, the values of `CCN(Cc1ccc(OC)nc1)C(C)(C)CO` are -2% and 0.22.
For `O=C(NC1CCN(Cc2ccccc2)CC1)c1cn(CCc2ccccc2)nn1` the same measures were 4% and -0.58.
For `CCc1cc(C(=O)N2CCC([C@@H]3OCCC3C(=O)O)CC2)oc1CC` (some centres not stated) the same measures were 9% and -0.88.
Regarding `CC(C)O[C@H]1CN(C(=O)CCNC(=O)c2ccc(F)cc2)C[C@@H]1O`, the “% Inhibition” value is 6% and the Z score is given as -0.9.
For `CCOc1ccccc1N(CC(=O)Nc1cccc(N(C)S(C)(=O)=O)c1)S(=O)(=O)c1ccc(Cl)cc1`, the “% Inhibition” value is reported as -11% and the Z score was 1.5.
Regarding `O=C(Nc1scnc1C1CC1)N1CCCn2c(cc3ccccc32)C1`, the “% Inhibition” value is given as 10% and the Z score is -1.46.
`CC(NC(=O)[C@H]1CCC(=O)N1)C1CC2CCC1C2` (some centres not stated): the “% Inhibition” value is on record as -1% and the Z score stood at 0.1.
For `Cc1c[nH]c(C(=O)N2CCN(Cc3ccncc3)[C@@H]3CS(=O)(=O)C[C@@H]32)c1` the same measures were -7% and 1.47.
Regarding `CCCN(C(=O)NCc1ccc(O)cc1)[C@H]1CCCC[C@@H]1O`, the “% Inhibition” value is reported as -10% and the Z score was 1.25.
With `COc1ccc(-c2cc(C(=O)NCCc3ccccc3)sn2)cc1`, the “% Inhibition” value is reported as -10% and the Z score is recorded as 1.26.
Turning to `COc1ccc(CCC(=O)N2Cc3cncnc3C2)cc1`, the “% Inhibition” value was -12% and the Z score came out at 2.08.
For `CCCCn1cc(C(=O)N2CCc3ccncc32)c(C)n1`, the “% Inhibition” value was -13% and the Z score turned out to be 2.45.
Consider `CN1CC[C@@H]2CN(C3CCN(c4nc5ccccc5o4)CC3)C[C@@H]21`, for which the “% Inhibition” value was -5% and the Z score was found to be 0.59.
Consider `CC(C)(C)OC(=O)[C@@]12CCC[C@H]1CN(C(=O)c1cscn1)C2`, for which the “% Inhibition” value was -4% and the Z score worked out at 0.45.
For the compound `CC(C)CN(CC(=O)NC(C)C)c1cccc(O)c1`, the “% Inhibition” value is -3% and the Z score was determined as 0.6.
In the same order, the values of `O=C(N[C@H]1CC12CCCCC2)c1cc(F)cc2[nH]nnc12` are -9% and 0.74.
In the same order, the values of `CCCOc1ncccc1CNC(=O)CN1Cc2ccccc2C1` are -14% and 1.37.
Take `O=C(N1CCN(CCCO)CC1)N1CCN(Cc2ccccc2)CC1`: the “% Inhibition” value is -11% and the Z score came to 2.01.
`CCOC(=O)N1CCN(C(=O)CCc2nnc(CCc3ccccc3OC)o2)CC1`: the “% Inhibition” value is given as -3% and the Z score is 0.5.
In the same order, the values of `C[C@H]1CCCN(Cc2c(-c3ccccc3)nc3ccc(Cl)cc3c2O)C1` are -11% and 1.44.
As for `CCc1oc(C(=O)Nc2cnccn2)cc1C`, the “% Inhibition” value was -6% and the Z score was 1.01.
